# Measured values as given in article PMC10726135.
# The other results are listed elsewhere or left out. At the low end of the ranking, values are background and their order means little. Measured with an extract: partners may take part in the binding.
# Target: T1, HNF4alpha8 (COS-7 nuclear extract) (UniProt P41235-5)
# T1 sequence: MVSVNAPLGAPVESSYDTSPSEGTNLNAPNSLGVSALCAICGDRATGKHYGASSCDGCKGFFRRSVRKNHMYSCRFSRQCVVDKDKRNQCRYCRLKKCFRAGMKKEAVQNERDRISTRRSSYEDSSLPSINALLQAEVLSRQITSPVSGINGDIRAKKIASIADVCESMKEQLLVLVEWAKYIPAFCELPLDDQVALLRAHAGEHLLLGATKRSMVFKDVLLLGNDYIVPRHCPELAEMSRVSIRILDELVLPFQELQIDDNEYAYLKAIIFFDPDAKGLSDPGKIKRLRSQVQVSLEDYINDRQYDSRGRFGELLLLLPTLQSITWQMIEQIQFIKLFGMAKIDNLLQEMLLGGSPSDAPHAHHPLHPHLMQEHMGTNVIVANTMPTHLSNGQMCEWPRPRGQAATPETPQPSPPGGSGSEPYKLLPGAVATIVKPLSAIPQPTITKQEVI
# Experiment: protein-binding microarray
# Settings: COS-7 nuclear extract on double-stranded Agilent 4x180k PBM; binding buffer, salt, pH and temperature not given; high values mean tight binding; double strand, one strand shown; sequences stand for … in …GCCTAGGGAGATTAGAGTATCGGTCGA
row,Sequence,binding signal (log2 normalized intensity)
1,CCTCTGGCCACCAGTTATTCATGTCCCTAC,-0.0166
2,AGCCTGTGTGCTGAGAGTTGGAAAATGTCG,0.798
3,TTGAGCTGCATATTTGAGTAGGATTTTGCT,-1.23
4,GGCCAGGTGGGCTGCTCCCAGTGCCCTTTG,4.47
5,TGATATTGGGTGAGTGTTAGAGCACCCTCT,0.926
6,CCAAATGACGCTTTAAGTAGGCACTATTAT,-1.18
7,AGGTTAAGACTTTGAATCAGTAAATATTTG,1.2
8,ATGTTCAGGATTACTATAGGTTCTACTCTC,-1.19
9,CAAAACTTCACCTCCCCTAGACTTACTATT,1.73
10,CCATGCTCTTTGGCCTGGCATTTGAGACTA,0.329
11,GCGCGGACATAAAATTAAAGCGGACGGGCT,-1.34
12,ACCTACGGGTCAAGGGTTCAGGGCTCAGTT,2.57
13,AGGGGCTATTTCTGACCTTTGCACCAGAGA,7.69
14,AGATTGCATCTGTTTTTATTTCCCCTTTCT,1.87
15,TTTGTGAGAGGTCAATGTCCAGTTCCGCTG,5.02
16,ATGATTGCTCTCTACTTGGTGGGAGGAGGG,-1.29
17,AGGGCACTGGGGATAGAATCAAAGGTCAGG,4.67
18,ATGTCATTTAAGACGAGTGGTTTGAGGTCA,3.2
19,CACAAATCTCCACAAACATACAACCATCAA,-0.987
20,AGATAATGGATTGGGGGCCATGTCTCAGCC,-0.922
21,GCAAAGACTCAAATCCAAGCTGGCTGGCTT,-1.35
22,AGGCCAGGGGCACTCTCTGTTATCAGACAC,-1.12
23,CAGCTGGAAGGTATTGTCATTATTCCAGCT,-1.43
24,AACCCCTATGTTTAATGTATAAACCCTGAG,1.17
25,ACATCCCACTCAAAGGTCAGGGCTAGGCTG,0.754

row,Sequence,binding signal (log2 normalized intensity)
1,GAAGAGATCAAAGTTCTGTTTGTATAACCC,2.92
2,CAGTTGGCCACCTTTGGCCGAAACTCAGTG,1.78
3,GACCAGGTTGTGAGGGAGGGCACAGGCAAC,-0.883
4,ATAGCCACCAGGGCCTCTGAGATAAGGGTT,-1.31
5,GAGGGGGCGGGGAGAGGGAAGAGTCTTCTC,-1.37
6,CGTGAGTATTTTTTCAACATATACTTTGAA,1.55
7,AATTGAACTGAAATATGAACTGCTGCCTAC,-1.25
8,TAAATCTCTAGTCCCAGCCTAGGCCTTTGT,0.204
9,CTCCCCTTGTCTGATAAGATTCAGAACCCA,1.46
10,TGGAACTGAAGGCAGGAAAGGGCCTCTCAG,-1.31
11,GTGAAATAGGAGGATTTTATTCAGGTGGCC,0.784
12,CAAAAACAATCAGGGGTTAGGGTGAAGTAA,-1.19
13,CTTAGTGATTAGAAGAAAAGAGTTGCTCAA,-1.41
14,AAGGATCAAGGACCTGCTCTGGGGCTACCT,-1.28
15,AATGTGTGTTCTGCTGCCATTGGATGGAAT,1.51
16,ATCATTCATGGGCCAAAGTTTGTTTCTTAT,1.98
17,CTCCTCATTCCTTTCTAATCTCAAAGTGTC,1.71
18,TTCTAAAGGCACAATCAGGGCTAAAGTCAG,-1.31
19,AAGAGGCCCATCTCACACATAATGATACCA,-0.801
20,GTCAACAAGATTCCTTGAGCATTCCAAAAA,-1.37
21,TTGGGATCAGACACGTGGGACCATGAGTAC,1.13
22,CCACTATTCATAAAGTTCTCTGGCAAATAT,-0.0389
23,TTCACCCGCGCCCAGCGGTTCCGGGCGGCA,-1.42
24,ACTCTACAACAAAGGAAATGAAGCAACACT,-1.36
25,TGACAAAGTCCATCTGGGCAAGGTGTCAAC,2.5

row,Sequence,binding signal (log2 normalized intensity)
1,CATGCAATCACACTAATCTGTCAGAAAACC,-0.962
2,GCAGAAGGGATGGGAACCGACCTTTGGTTC,6.11
3,GAAGGACACTTAGAGATAAGGTAACAGGCC,-1.23
4,TGCGAGCGCCTTGCGAGCGTACGCAGGGCG,-1.33
5,ATCAGGAGACTGGAGAGACCAAAGGGTGAA,0.676
6,CCTCTGATTTGCTGATCCTATTTACCTGCC,0.0727
7,ATTCTTTCCCCTCCCTTCCACCTTTGCCCT,6.61
8,TGTCAGGAACAACTTCGGGAATCTGACCTT,4.3
9,CAATGACCTTTGACCCTTCTCTGGGAGAAA,8.44
10,ATGCTTCCTACACGTGCTCTACTAGGCAGT,-1.26
11,GTAGAGACCTGTCTTCCTGGTGACCTTTGT,7.95
12,GCATATTTAACTTGGCAAGGGGAGGCACTC,-1.22
13,ACAAAGGTCACACTCCTGTGCAAACATCTG,1.27
14,GTTCTGTACTTTGGAACCTGAAAGAGCAAC,4.7
15,GAATGTGTGCTGGCCTGGTTCCTTCTCAGT,0.301
16,TCTCAGTAGACTAACGTATGGACTTTCTGA,3.52
17,TCAGCCGGGGAAGGTGCAGGGCTACTGTGG,-1.31
18,GGATTGATTAGATAACATCTGGACTTTACA,3.97
19,TAATCTCCAAGTAACTGAAACTACAAAAGC,-1.35
20,TATCAGTAGGTACGTTTGTGATACACCTTG,1.43
21,CTACTATGTGCCAGACACTGCTCTAGGCAT,-1.23
22,AACTTTGTAACTAACAACTGACCTTGCAGG,2.3
23,ACGTGTTTCCAGGCAAGGAATTTGGAATTC,2.23
